The other results are listed elsewhere or left out. Binding of human transcription factors and regulators to the viral nucleoprotein by AlphaScreen, crude cell-free proteins, amounts not normalised, one pass. Fold of the Venus control; higher = more signal. No active / inactive call. Single-pass screen; sequences are the whole Swiss-Prot entries looked up by name.
B1: TFDP2, Q14188 (protein)
chain: MTAKNVGLTSTNAEVRGFIDQNLSPTKGNISFVAFPVSNTNSPTKILPKTLGPINVNVGPQMIISTPQRLTSSGSVLIGSPYTPAPAMVTQTHIAEATGWVPGDRKRARKFIDSDFSESKRSKKGDKNGKGLRHFSMKVCEKVQRKGTTSYNEVADELVSEFTNSNNHLAADSAYDQKNIRRRVYDALNVLMAMNIISKEKKEIKWIGLPTNSAQECQNLEIEKQRRIERIKQKRAQLQELLLQQIAFKNLVQRNRQNEQQNQGPPALNSTIQLPFIIINTSRKTVIDCSISSDKFEYLFNFDNTFEIHDDIEVLKRMGMSFGLESGKCSLEDLKLAKSLVPKALEGYITDISTGPSWLNQGLLLNSTQSVSNLDLTTGATLPQSSVNQGLCLDAEVALATGQFLAPNSHQSSSAASHCSESRGETPCSFNDEDEEDDEEDSSSPE
B2: SREBF2, Q12772 (protein)
chain: MDDSGELGGLETMETLTELGDELTLGDIDEMLQFVSNQVGEFPDLFSEQLCSSFPGSGGSGSSSGSSGSSSSSSNGRGSSSGAVDPSVQRSFTQVTLPSFSPSAASPQAPTLQVKVSPTSVPTTPRATPILQPRPQPQPQPQTQLQQQTVMITPTFSTTPQTRIIQQPLIYQNAATSFQVLQPQVQSLVTSSQVQPVTIQQQVQTVQAQRVLTQTANGTLQTLAPATVQTVAAPQVQQVPVLVQPQIIKTDSLVLTTLKTDGSPVMAAVQNPALTALTTPIQTAALQVPTLVGSSGTILTTMPVMMGQEKVPIKQVPGGVKQLEPPKEGERRTTHNIIEKRYRSSINDKIIELKDLVMGTDAKMHKSGVLRKAIDYIKYLQQVNHKLRQENMVLKLANQKNKLLKGIDLGSLVDNEVDLKIEDFNQNVLLMSPPASDSGSQAGFSPYSIDSEPGSPLLDDAKVKDEPDSPPVALGMVDRSRILLCVLTFLCLSFNPLTSLLQWGGAHDSDQHPHSGSGRSVLSFESGSGGWFDWMMPTLLLWLVNGVIVLSVFVKLLVHGEPVIRPHSRSSVTFWRHRKQADLDLARGDFAAAAGNLQTCLAVLGRALPTSRLDLACSLSWNVIRYSLQKLRLVRWLLKKVFQCRRATPATEAGFEDEAKTSARDAALAYHRLHQLHITGKLPAGSACSDVHMALCAVNLAECAEEKIPPSTLVEIHLTAAMGLKTRCGGKLGFLASYFLSRAQSLCGPEHSAVPDSLRWLCHPLGQKFFMERSWSVKSAAKESLYCAQRNPADPIAQVHQAFCKNLLERAIESLVKPQAKKKAGDQEEESCEFSSALEYLKLLHSFVDSVGVMSPPLSRSSVLKSALGPDIICRWWTSAITVAISWLQGDDAAVRSHFTKVERIPKALEVTESPLVKAIFHACRAMHASLPGKADGQQSSFCHCERASGHLWSSLNVSGATSDPALNHVVQLLTCDLLLSLRTALWQKQASASQAVGETYHASGAELAGFQRDLGSLRRLAHSFRPAYRKVFLHEATVRLMAGASPTRTHQLLEHSLRRRTTQSTKHGEVDAWPGQRERATAILLACRHLPLSFLSSPGQRAVLLAEAARTLEKVGDRRSCNDCQQMIVKLGGGTAIAAS

target: nucleoprotein N of Crimean-Congo hemorrhagic fever virus; experiment: AlphaScreen luminescence signal relative to Venus negative control (fold); higher = stronger binding to CCHFV N
Protocol: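 AlphaScreen binding of cell-free made, FLAG-GST-tagged human transcription factors and regulators (crude translation products) to biotinylated N protein; signal as fold of the FLAG-GST-Venus control. One pass.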

Binder	AlphaScreen luminescence signal
B1	1.95
B2	2.19

Reference: the supplement of paper PMC12423691
